Experimental data published in PMC6092318, “Keap1–MCM3 interaction is a potential coordinator of molecular machineries of antioxidant response and genomic DNA replication in metazoa” (Scientific Reports, 2018).
Where two headings read alike, the source gives them in different places. These are yes or no findings as the source states them, for the method shown. For part of these data: In cells and extracts the contact can be indirect. Some results given as binding are weak or reduced against the parent protein; the word gives no strength. For part of these data: Where a sequence is shown, tags or fusion partners need not be part of it.

Sequences of proteins named here, by UniProt entry; tags and fusion partners are left off. A change or cut given only in a name is not applied to a line headed by its entry.
UniProt Q9Z2X8: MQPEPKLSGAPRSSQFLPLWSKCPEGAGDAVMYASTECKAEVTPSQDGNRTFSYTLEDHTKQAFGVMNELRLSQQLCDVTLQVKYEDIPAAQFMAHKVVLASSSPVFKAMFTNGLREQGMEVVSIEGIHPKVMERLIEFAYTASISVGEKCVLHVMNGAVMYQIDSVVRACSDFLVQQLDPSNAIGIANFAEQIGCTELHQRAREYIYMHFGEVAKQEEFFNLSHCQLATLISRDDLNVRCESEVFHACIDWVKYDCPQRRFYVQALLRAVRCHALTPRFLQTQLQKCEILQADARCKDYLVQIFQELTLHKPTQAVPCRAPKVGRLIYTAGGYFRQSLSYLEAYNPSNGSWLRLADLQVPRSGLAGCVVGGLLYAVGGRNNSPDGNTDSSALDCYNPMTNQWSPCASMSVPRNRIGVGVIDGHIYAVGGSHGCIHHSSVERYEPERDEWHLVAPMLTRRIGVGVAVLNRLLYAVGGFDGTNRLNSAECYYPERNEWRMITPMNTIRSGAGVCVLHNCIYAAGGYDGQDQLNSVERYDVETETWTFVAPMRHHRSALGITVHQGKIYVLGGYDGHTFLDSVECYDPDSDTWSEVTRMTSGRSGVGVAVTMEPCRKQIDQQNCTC
UniProt Q61881: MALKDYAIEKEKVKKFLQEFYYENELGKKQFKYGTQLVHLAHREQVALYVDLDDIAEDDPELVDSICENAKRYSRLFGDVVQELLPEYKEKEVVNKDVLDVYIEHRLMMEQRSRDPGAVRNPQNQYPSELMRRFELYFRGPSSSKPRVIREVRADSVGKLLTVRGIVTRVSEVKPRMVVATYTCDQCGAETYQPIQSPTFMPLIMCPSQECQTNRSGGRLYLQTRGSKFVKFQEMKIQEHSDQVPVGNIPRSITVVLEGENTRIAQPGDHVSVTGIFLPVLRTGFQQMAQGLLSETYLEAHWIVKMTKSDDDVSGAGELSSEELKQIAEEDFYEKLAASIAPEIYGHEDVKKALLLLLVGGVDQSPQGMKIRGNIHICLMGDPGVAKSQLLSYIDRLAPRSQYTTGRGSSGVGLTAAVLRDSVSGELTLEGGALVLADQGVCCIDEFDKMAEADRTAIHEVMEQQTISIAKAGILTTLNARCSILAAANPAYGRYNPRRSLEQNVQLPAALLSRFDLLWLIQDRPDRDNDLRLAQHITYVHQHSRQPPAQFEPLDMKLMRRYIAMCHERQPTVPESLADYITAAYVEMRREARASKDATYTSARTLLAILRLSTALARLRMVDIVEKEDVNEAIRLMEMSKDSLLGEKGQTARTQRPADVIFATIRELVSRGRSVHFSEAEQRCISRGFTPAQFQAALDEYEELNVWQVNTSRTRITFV

Key:
[1] = target: T1, FLAG-MCM3 (mouse, wild type, baculovirus) (mouse) (UniProt P25206); assay: SEC; MCM2-7 from baculovirus co-expression in Sf9 cells, size exclusion chromatography profile (Supplementary Fig. S7); details not shown
T1 sequence: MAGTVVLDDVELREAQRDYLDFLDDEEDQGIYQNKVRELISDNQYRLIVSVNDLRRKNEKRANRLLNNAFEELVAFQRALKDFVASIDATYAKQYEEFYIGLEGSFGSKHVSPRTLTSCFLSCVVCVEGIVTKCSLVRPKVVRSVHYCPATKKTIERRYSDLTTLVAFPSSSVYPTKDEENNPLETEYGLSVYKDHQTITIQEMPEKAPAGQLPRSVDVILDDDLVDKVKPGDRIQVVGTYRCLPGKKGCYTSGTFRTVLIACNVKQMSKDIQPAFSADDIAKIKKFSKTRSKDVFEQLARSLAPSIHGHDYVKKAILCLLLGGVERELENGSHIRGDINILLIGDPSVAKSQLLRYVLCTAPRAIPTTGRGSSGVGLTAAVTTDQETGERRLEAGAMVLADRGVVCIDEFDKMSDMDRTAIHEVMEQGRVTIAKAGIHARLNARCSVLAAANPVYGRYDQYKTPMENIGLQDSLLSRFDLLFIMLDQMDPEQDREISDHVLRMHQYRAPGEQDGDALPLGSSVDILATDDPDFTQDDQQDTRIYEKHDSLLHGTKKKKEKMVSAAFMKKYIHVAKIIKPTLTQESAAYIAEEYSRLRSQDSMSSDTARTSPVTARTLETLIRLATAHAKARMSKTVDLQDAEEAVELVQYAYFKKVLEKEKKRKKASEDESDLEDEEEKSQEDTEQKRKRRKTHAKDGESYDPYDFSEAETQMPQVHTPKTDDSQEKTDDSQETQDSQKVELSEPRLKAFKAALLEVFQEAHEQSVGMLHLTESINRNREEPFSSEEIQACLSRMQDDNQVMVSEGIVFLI

[2] = target: strep-Keap1 mutant R380A/R415A (mouse, baculovirus) (mouse) (UniProt Q9Z2X8); assay: pull-down; Strep-Tactin beads (strep-Keap1 as bait) on extracts of baculovirus co-infected Sf9 cells, 1 hr at 4 °C, washes with 250 mM KCl buffer pH 7.8, Western blot
[3] = target: strep-Keap1 (mouse, wild type, baculovirus) (mouse) (UniProt Q9Z2X8); assay: as above
[4] = target: T1, FLAG-MCM3 (mouse, wild type, baculovirus) (mouse); assay: co-IP; anti-FLAG beads (FLAG-MCM3 as bait; called FLAG-MCM3 pulldown) on extracts of baculovirus co-infected Sf9 cells, 1 hr at 4 °C, washes with 250 mM KCl buffer pH 7.8, Western blot
[5] = target: strep-Keap1 mutant R380A/R415A (mouse, baculovirus) (mouse) (UniProt Q9Z2X8); assay: pull-down; Strep-Tactin beads (strep-Keap1 as bait) on extracts of baculovirus co-infected Sf9 cells, 1 hr at 4 °C, washes with 250 mM KCl buffer pH 7.8, Western blot; remark: listed apart in the source
[6] = target: T1, FLAG-MCM3 (mouse, wild type, baculovirus) (mouse); assay: pull-down; tandem affinity (strep-Keap1 then FLAG-MCM3) from Sf9 cells expressing all six MCM2-7 subunits, Keap1 and MCM-BP, 100 mM KCl buffer, Coomassie stained gel, bands verified by mass spectrometry

“MCM7 (mouse, wild type, baculovirus) (from UniProt Q61881 1-719)” was tested, and the binding [1] was “binds”, the binding [2] was “no binding” and the binding [3] was “binds”.

B1: HA-MCM-BP (mouse, baculovirus) (natural protein, UniProt Q8R3C0 1-642, looked up)
chain: MPCGEDWLSHPLGIVQGFFAQNGVNPDWEKKVIEYFKEKLKENNAPKWVPSLNEVPLHYLKPNSFVKFRCMIQDMFDPEFYMGIYETVNQNTKARVLHFGKYRDVAECGPQQELDLSSPRSTTSERQTFYCVPVPGESSWVKEAYVNANQARVSPSTSYTPSRHKRSYEDDEDMDLQPSKQKEQHPGSRQAGGLGGLHWCGEPKRLETEASSGQQLNTLNLSSPFDLNFPLPGEKGPACLVKVYEDWDCFKVNDVLELYGVLSVDPVLSVLNSEERDASALLDPMECTDMAEEQRVHSPPASLVPRIHVILAQKLQHINPLLPTCLNKEESRSCQFVSNFMSELSPVRAELLGFLTHALLGDSLAAEYLILHLISTVYTRRDVLPLGKFTVNLSGCPQNSTFTEHLYRIIQHLVPASFRLQMTIENMNQLKLIPHKDYTANRLVSGLLQLPNNTSLVIDETLLEQGQLDTPGVHNVTALSNLITWQKVDYDFSYHQMEFPCNINVLITSEGRSLLPADCQIHLQPQLIPPNMEEYMNGLLSAVLPSVLNKFRIYLTLLRFLDYNLSDDITKAVEDDFVEMRKDDPQSITADDLHQLLVVARFLSLSVGQTTLSRERWLRAKQLELSRKARLQQQKSVNGNEL
notes: MCM-BP, mouse; cDNA cloned into pFastBac1; source: Sf9, baculovirus infected, in extract
In the case of B1, the binding [4] is reported as “binds”, the binding [5] is reported as “no binding” and the binding [6] is reported as “binds”.
